# Source: PubChem BioAssay AID2101 (National Center for Advancing Translational Sciences (NCATS), 2009)
# Screen size: about 330,000 compounds; about 300 (0.091%) were called active. Inconclusive results, whose numbers are uncertain, are shown with a selection of clear calls. The call rests on the fitted dose curve; in most records, active means well fitted inhibition curve with a large enough effect; inconclusive means small, poorly fitted or top-dose-only effect, or effect the other way, or another doubt; inactive means no such curve, though single readings can be large or run the other way. No potency is given beside an inconclusive call; the fits are too rough.
# Target: Lysosomal acid glucosylceramidase (Homo sapiens) (UniProt P04062)
# Assay: qHTS Assay for Inhibitors and Activators of N370S glucocerebrosidase as a Potential Chaperone Treatment of Gaucher Disease;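 on activity change, negative = inhibition: 0% = full enzyme activity and -100% = no enzyme basal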
# Conditions: N370S GC spleen homogenate, 4MU-glucoside fluorescence; activity change, negative = inhibition: at 59.4 µM (top of the series) unless noted
# Potency means the concentration at half of the fitted maximal effect.
Compound,Potency,"activity change, negative = inhibition"
COc1cccc(NC(=O)CSc2nc3c(sc4ccccc43)c(=O)n2CCN(C)C)c1,"inconclusive [activator, partial curve]",–
CCCCCCCOC(=O)C[N+](C)(C)CCOC1CC2CCC1(C)C2(C)C (centres undefined),"inconclusive [inhibitor, single point]",–
CCOc1ccc2c(c1)s/c(=N\S(=O)(=O)c1ccc(OC)cc1)n2C(F)F,–,inconclusive: 19% [activator]
Cc1nc(S(=O)(=O)c2ccc(Cl)cc2)nc2c1CCC2,"inconclusive [inhibitor, single point]",–
COCc1cc(=O)[nH]c(Nc2nc3ccc(C)cc3o2)n1,inactive,–
COc1ccccc1-c1c(-c2ccc(O)cc2O)n[nH]c1C(F)(F)F,"inconclusive [inhibitor, single point]",–
CSc1nc2oc3c(c2c2nncn12)CC(C)(C)SC3,"inconclusive [activator, single point]",–
CCOC(=O)CSC1=NC(=O)/C(=C\c2ccc(OC(C)=O)cc2)S1,inactive,–
Nc1n[nH]c(-c2ccccc2[N+](=O)[O-])n1,"inconclusive [inhibitor, single point]",–
CCC1CCCN1Cn1cnc2c([nH]c3ccc(OC)cc32)c1=O (centres undefined),inactive,–
Cc1ccc(C(=O)Nc2ccccc2N2CCCCC2)o1,"inconclusive [activator, single point]",–
Cc1ccccc1NC(=S)N(CCN(C)C)C(C)c1ccccn1 (centres undefined),"inconclusive [inhibitor, single point]",–
COc1ccc2cc3c(N)nn(C(=O)C4CCC(C(C)(C)C)CC4)c3nc2c1 (centres undefined),"inconclusive [activator, partial curve]",–
O=C(NC1(C(F)(F)F)Oc2ccccc2O1)N1CCCC1,inactive,–
O=C(Nc1cccc(F)c1)N1C2CCC1CC(O)(c1cccnc1)C2 (centres undefined),"inconclusive [inhibitor, single point]",–
CN(C)CCCn1cnc2c(c1=N)C(c1ccccc1)c1ccc3ccccc3c1O2 (centres undefined),"inconclusive [inhibitor, partial curve]",–
O=C(Nc1ccccn1)C1COc2ccccc2O1 (centres undefined),inactive,–
COc1cc(NC(=O)CN(C)S(=O)(=O)c2ccc3c(c2)CC(C)N3C(C)=O)cc(OC)c1OC (centres undefined),inactive,–
Nc1c2c3c(sc2nc(=O)n1N)CCCC3,inactive,–
Cc1c(CC(=O)N2CCN(C(=O)C3COc4ccccc4O3)CC2)c(=O)oc2cc(O)c(Cl)cc12 (centres undefined),"inconclusive [activator, partial curve]",–
CCOc1ccc(NC(=S)N(CCc2c(C)[nH]c3ccc(C)cc23)Cc2ccncc2)cc1,active: 14.1 µM,–
O=S(=O)(Nc1nccs1)c1ccc(NCc2cc(Br)cc(Br)c2O)cc1,inactive,–
C=C[C@@H](C1=CC(=O)C(OC)=C(OC)C1=O)c1ccccc1,inactive,–

Compound,Potency,"activity change, negative = inhibition"
Cc1cnc(CNc2nc(-c3ccccc3C(F)(F)F)nc3ccccc23)cn1,"inconclusive [inhibitor, partial curve]",–
COc1ccc(C2Nc3ccccc3C(=O)N2NS(=O)(=O)c2ccccc2)c(OC)c1 (centres undefined),"inconclusive [activator, single point]",–
NC(=O)[C@@H]1CCCN1Cc1c(C(=O)N2CCN(C3CCCCC3)CC2)nc2ccccn12,inactive,–
Cc1ccc(C)c(C(=O)Cn2ncc(Cl)c(Cl)c2=O)c1,inactive,–
O=C1CN(/N=C/c2ccc(-c3ccc([N+](=O)[O-])cc3)o2)C(=O)N1,"inconclusive [inhibitor, single point]",–
CCOC(=O)c1c(C)nc(C)c(C(=O)OCC)c1-c1cccc(N)c1,"inconclusive [activator, partial curve, poor fit]",–
Clc1ccc(Cn2ncc3c(N4CCCC4)ncnc32)cc1,"inconclusive [activator, single point]",–
Cc1ccc(OCC(=O)N2c3ccccc3NC(=O)C2(C)C)c([N+](=O)[O-])n1,"inconclusive [inhibitor, single point]",–
CCC1CCCCN1C(=O)COC(=O)c1cc2ccccc2cc1O (centres undefined),"inconclusive [activator, partial curve]",–
O=C(c1cccnc1Nc1ccccc1F)N1CCOCC1,"inconclusive [inhibitor, single point]",–
O=C(Nc1nc2ccc(Cl)cc2s1)[C@@H]1CCCN1C(=O)c1cccs1,"inconclusive [activator, partial curve]",–
Cc1cc(-c2nnc(SCC(=O)N3C(C)CCCC3C)o2)no1 (centres undefined),inactive,–
O=C(NCC1CCCO1)c1cc(-c2ccccc2F)no1 (centres undefined),inactive,–
CC(C)N(C(=O)Cn1c(-c2ccccc2Cl)nc2ccccc21)c1ccccc1,"inconclusive [activator, partial curve]",–
CCS(=O)(=O)N1N=C(c2cccs2)CC1c1cc2cc(C)ccc2nc1Cl (centres undefined),"inconclusive [activator, partial curve]",–
COc1ccc(CCNC(=O)CSc2nnc(-c3ccc(F)cc3)o2)cc1OC,–,inconclusive: 23.3% [activator]
CCOc1ccc(CC(=O)Nc2c(C(=O)Nc3ccccc3)oc3ccccc23)cc1OCC,inactive,–
O=C(Nc1ccccc1)C1=C[C@H](c2ccccc2)C[C@H](OCc2ccc(CO)cc2)O1,"inconclusive [activator, partial curve]",–
Cc1ccc(/C=N/NC(=O)NC23CC4CC(CC(C4)C2)C3)o1,"inconclusive [activator, partial curve]",–
CCOC(=O)Cc1csc(N/C(=N/S(=O)(=O)c2cc(Br)ccc2OCC)c2ccccc2)n1,"inconclusive [inhibitor, partial curve, poor fit]",–
C=C(C)[C@@H]1CC=C(CN2CCN(Cc3ccccc3)CC2)CC1,"inconclusive [inhibitor, single point]",–
CC(NCc1ccc(-c2ccccc2)cc1)C(O)c1ccccc1 (centres undefined),"inconclusive [inhibitor, single point]",–
c1cncc(CNc2nc(-c3ccc4c(c3)OCO4)nc3ccccc23)c1,"inconclusive [inhibitor, single point]",–

Compound,Potency,"activity change, negative = inhibition"
O=C(NCCCn1ccnc1)c1ccc(NS(=O)(=O)c2ccc(Cl)c(Cl)c2)cc1,"inconclusive [inhibitor, partial curve]",–
CCOc1cccc(/C=N/N2C(=O)CSC2=S)c1O,"inconclusive [inhibitor, single point]",–
COc1ccc(Br)cc1/C=C/C(=O)Nc1ccc(C)cc1,"inconclusive [activator, partial curve]",–
CCC(c1nc2ccccc2c(=O)n1CCCn1ccnc1)N1C(=O)c2ccccc2C1=O (centres undefined),"inconclusive [activator, partial curve]",–
CCOC(=O)C1=C(C)NC(=O)C1(NC(=O)c1cccnc1)C(F)(F)F (centres undefined),"inconclusive [activator, partial curve, poor fit]",–
O=C(COC(=O)[C@@H]1CCCN1S(=O)(=O)c1ccccc1F)Nc1ccc(OC(F)F)cc1,"inconclusive [activator, partial curve]",–
CC(C)[C@H]1c2ccc(F)cc2CC[C@@]1(CCN(C)CCCc1nc2ccccc2[nH]1)OC(=O)C1CC1,"inconclusive [inhibitor, partial curve]",–
S=C(NCc1ccccn1)Nc1ccc(Br)cc1Cl,inactive,–
Cc1cc(C)c(C#N)c(SCc2ccccc2C)n1,inactive,–
C=CCOC(=O)N[C@@H](Cc1ccccc1)/C(C(=O)OC)=C(\C)NCc1ccccc1,inactive,–
O=C(Nc1cc(N2CCOCC2)ncn1)Nc1cccc2ccccc12,"inconclusive [activator, partial curve, poor fit]",–
O=C(C1=C[C@H](C2CCCCC2)C[C@H](OCc2ccc(CO)cc2)O1)N1CCN(Cc2ccccc2)CC1,"inconclusive [activator, partial curve]",–
CCOc1ccc(OCc2nnc(SCC(=O)NC3CCS(=O)(=O)C3)n2-c2ccc(Cl)cc2)cc1 (centres undefined),"inconclusive [inhibitor, single point]",–
COC(=O)[C@@]1(Cc2ccccc2)[C@H]2c3cc(C(=O)N4CCCC4)n(Cc4ccc(S(C)(=O)=O)cc4)c3C[C@H]2CN1C(=O)c1ccccc1,inactive,–
Cc1ccc(NCc2nc3ccccc3n2C)cc1C,inactive,–
CC1CN(c2ccc([N+](=O)[O-])c(NCCOc3ccc(Cl)cc3)c2)CC(C)N1 (centres undefined),"inconclusive [inhibitor, partial curve]",–
CCCN1C=CC(=C/C=C(\C#N)C(=O)OCC)C=C1,"inconclusive [inhibitor, full curve]",–
O=C(Cc1ccccc1)N/N=C/c1cc(Br)c(Br)o1,"inconclusive [activator, partial curve]",–
CC(C)(C)c1ccc(C2CC2C(=O)N/N=C\c2ccc[nH]2)cc1 (centres undefined),"inconclusive [activator, partial curve, poor fit]",–
O=C(N/N=C/c1ccc(O)cc1)c1ccncc1,inactive,–
Cc1ccc(C(=O)NNc2nc3ccccc3nc2C(F)(F)F)cc1,inactive,–
Cc1cc(C)cc(NC(=O)CSc2ncc(S(=O)(=O)c3ccccc3)c(=O)[nH]2)c1,"inconclusive [activator, single point]",–
Cc1ccc(C=C2C(=O)c3ccccc3C2=O)o1,inactive,–
